In paper PMC9911399, “Two distinct binding modes provide the RNA-binding protein RbFox with extraordinary sequence specificity”:
Where a chain is given by its changes, count along the chain named. The list shows a part of the results.

T1: RBFOX1 RRM (Homo sapiens, UniProt Q9NWB1 109-208)
T1 sequence: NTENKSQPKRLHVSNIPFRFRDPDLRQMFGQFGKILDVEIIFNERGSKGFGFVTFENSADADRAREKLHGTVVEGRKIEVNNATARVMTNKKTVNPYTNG

B1: GCGAACC (DNA:RNA)
RNA: GGGAGACCGGAAUUCAGAUUGUCCGCGAACCUUAAAUCCCGUCGUAGCCACCA
DNA 1: CAATCTGAATTCCGGTCTCCC
DNA 2: TGGTGGCTACGACGGGATT
B2: GACCAGC (DNA:RNA)
RNA: B1 RNA with C26A, G27C, A28C, C30G
DNA 1: CAATCTGAATTCCGGTCTCCC
DNA 2: TGGTGGCTACGACGGGATT
B3: CCCGACU (DNA:RNA)
RNA: B1 RNA with G25C, G27C, A28G, C31U
DNA 1: CAATCTGAATTCCGGTCTCCC
DNA 2: TGGTGGCTACGACGGGATT
B4: ACAAGAA (DNA:RNA)
RNA: B1 RNA with G25A, G27A, A29G, C30A, C31A
DNA 1: CAATCTGAATTCCGGTCTCCC
DNA 2: TGGTGGCTACGACGGGATT
B5: CAACAUA (DNA:RNA)
RNA: B1 RNA with G25C, C26A, G27A, A28C, C30U, C31A
DNA 1: CAATCTGAATTCCGGTCTCCC
DNA 2: TGGTGGCTACGACGGGATT
B6: UCCUGGA (DNA:RNA)
RNA: B1 RNA with G25U, G27C, A28U, A29G, C30G, C31A
DNA 1: CAATCTGAATTCCGGTCTCCC
DNA 2: TGGTGGCTACGACGGGATT
B7: CUGAUUC (DNA:RNA)
RNA: B1 RNA with G25C, C26U, A29U, C30U
DNA 1: CAATCTGAATTCCGGTCTCCC
DNA 2: TGGTGGCTACGACGGGATT
B8: UUCACUG (DNA:RNA)
RNA: B1 RNA with G25U, C26U, G27C, A29C, C30U, C31G
DNA 1: CAATCTGAATTCCGGTCTCCC
DNA 2: TGGTGGCTACGACGGGATT
B9: UGAGGCA (DNA:RNA)
RNA: B1 RNA with G25U, C26G, G27A, A28G, A29G, C31A
DNA 1: CAATCTGAATTCCGGTCTCCC
DNA 2: TGGTGGCTACGACGGGATT
B10: GACGAGA (DNA:RNA)
RNA: B1 RNA with C26A, G27C, A28G, C30G, C31A
DNA 1: CAATCTGAATTCCGGTCTCCC
DNA 2: TGGTGGCTACGACGGGATT
B11: AUGUGUC (DNA:RNA)
RNA: B1 RNA with G25A, C26U, A28U, A29G, C30U
DNA 1: CAATCTGAATTCCGGTCTCCC
DNA 2: TGGTGGCTACGACGGGATT
B12: UUCGGCU (DNA:RNA)
RNA: B1 RNA with G25U, C26U, G27C, A28G, A29G, C31U
DNA 1: CAATCTGAATTCCGGTCTCCC
DNA 2: TGGTGGCTACGACGGGATT
B13: AAUUCGG (DNA:RNA)
RNA: GGGAGACCGGAAUUCAGAUUGUCCAAUUCGGUUAAAUCCCGUCGUAGCCACCA
DNA 1: CAATCTGAATTCCGGTCTCCC
DNA 2: TGGTGGCTACGACGGGATT
B14: AAGUAAC (DNA:RNA)
RNA: B13 RNA with U27G, C29A, G30A, G31C
DNA 1: CAATCTGAATTCCGGTCTCCC
DNA 2: TGGTGGCTACGACGGGATT
B15: UGGGUGA (DNA:RNA)
RNA: B13 RNA with A25U, A26G, U27G, U28G, C29U, G31A
DNA 1: CAATCTGAATTCCGGTCTCCC
DNA 2: TGGTGGCTACGACGGGATT
B16: AAGAGGU (DNA:RNA)
RNA: B13 RNA with U27G, U28A, C29G, G31U
DNA 1: CAATCTGAATTCCGGTCTCCC
DNA 2: TGGTGGCTACGACGGGATT
B17: GACGCGC (DNA:RNA)
RNA: B13 RNA with A25G, U27C, U28G, G31C
DNA 1: CAATCTGAATTCCGGTCTCCC
DNA 2: TGGTGGCTACGACGGGATT
B18: GGGGUUU (DNA:RNA)
RNA: B1 RNA with C26G, A28G, A29U, C30U, C31U
DNA 1: CAATCTGAATTCCGGTCTCCC
DNA 2: TGGTGGCTACGACGGGATT
B19: AUCCUGU (DNA:RNA)
RNA: B13 RNA with A26U, U27C, U28C, C29U, G31U
DNA 1: CAATCTGAATTCCGGTCTCCC
DNA 2: TGGTGGCTACGACGGGATT
B20: AGCGUGU (DNA:RNA)
RNA: B13 RNA with A26G, U27C, U28G, C29U, G31U
DNA 1: CAATCTGAATTCCGGTCTCCC
DNA 2: TGGTGGCTACGACGGGATT

The binders below were run against T1, RBFOX1 RRM (assay: EMSA; HiTS-Eq, 1 nM pool, 10 min; buffer printed only for the single-RNA assays: 10 mM Tris pH 7.5, 150 mM NaCl, 3.4 mM EDTA, 0.001% NP-40, 30 C). Settings: tags: His6 N-terminal (pET28a); label: 5' 32P.
Procedure, shortened: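 Purified RbFox RRM (wild type or mutant) was equilibrated for 10 min in 50 µL with 1 nM of a 5′-radiolabelled pool of RNA with 7 randomized nucleotides, its flanks annealed to DNA oligonucleotides, across increasing protein concentrations. Free RNA was separated by 8% native PAGE, excised, reverse-transcribed, PCR-barcoded and sequenced on an Illumina HiSeq 2500. Relative association constants came from read-count changes of each variant against the control reaction, normalised to the cognate motif.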

| Binder | binding signal |
| --- | --- |
| B1 | 0.00673 KA relative to UGCAUGU |
| B2 | 0.00826 KA relative to UGCAUGU |
| B3 | 0.01 KA relative to UGCAUGU |
| B4 | 0.000967 KA relative to UGCAUGU |
| B5 | 0.000418 KA relative to UGCAUGU |
| B6 | 0.00715 KA relative to UGCAUGU |
| B7 | 0.00958 KA relative to UGCAUGU |
| B8 | 0.0107 KA relative to UGCAUGU |
| B9 | 0.0197 KA relative to UGCAUGU |
| B10 | 0.015 KA relative to UGCAUGU |
| B11 | 0.0152 KA relative to UGCAUGU |
| B12 | 0.0136 KA relative to UGCAUGU |
| B13 | 0.0123 KA relative to UGCAUGU |
| B14 | 0.00575 KA relative to UGCAUGU |
| B15 | 0.0273 KA relative to UGCAUGU |
| B16 | 0.00938 KA relative to UGCAUGU |
| B17 | 0.0188 KA relative to UGCAUGU |
| B18 | 0.046 KA relative to UGCAUGU |
| B19 | 0.00791 KA relative to UGCAUGU |
| B20 | 0.0177 KA relative to UGCAUGU |
